# Assay results taken from the supplement of paper PMC12645437, “Orthogonal IMiD-Degron Pairs Induce Selective Protein Degradation in Cells” (ACS Chemical Biology, 2025).
# The other results are listed elsewhere or left out.
# Target: no compound (DMSO)
# Experiment: log2 fold change of degron read counts, EGFP-low vs EGFP+ sorted cells; higher = lower degron-EGFP level without compound (poor expression or instability)
# Conditions: compound: DMSO control; 18 h
# 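Note: jurkat cells carrying a lentiviral library of mutant zinc finger degrons fused to EGFP plus mCherry, mCherry+ cells FACS sorted, degron abundance counted by next-generation sequencing.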
row,Sequence,log2 fold change of degron read counts
1,FDCNQCGRCFTQKGNLLRHIKL,0.128
2,FFCPQCGAHFTQKGNLLRHIKL,0.35
3,FICPICGRMFTQKGNLLRHIKL,0.451
4,FFCPQCGAVFTQKGNLLRHIKL,0.293
5,FGCEICGHMFTQKGNLLRHIKL,-0.162
6,FYCNQCGRIFTQKGNLLRHIKL,1.13
7,FHCNVCGAPFTQKGNLLRHIKL,-0.425
8,FECDICGAGFTQKGNLLRHIKL,-2.46
9,FQCNQCGAKFTQKGNLLRHIKL,-1.09
10,FECDQCGAYFTQKGNLLRHIKL,-1.05
11,LFCEICGFYCTQKGNLLRHIKL,1.46
12,LICNQCGFNCTQKGNLLRHIKL,0.48
13,LRCNQCGFVCTQKGNLLRHIKL,0.937
14,FLCPVCGAGFTQKGNLLRHIKL,-0.286
15,LWCEICGFCCTQKGNLLRHIKL,1.47
16,FCCEQCGAQFTQKGNLLRHIKL,-1.75
17,FWCDICGANFTQKGNLLRHIKL,-0.508
18,LICEICGFECTQKGNLLRHIKL,-1.55
19,FICNICGAKFTQKGNLLRHIKL,-1.12
20,FGCPICGHAFTQKGNLLRHIKL,-0.592
21,FICNICGALFTQKGNLLRHIKL,0.407
22,FRCEICGHWFTQKGNLLRHIKL,-0.659
23,FRCNICGAMFTQKGNLLRHIKL,-0.644
24,FVCNQCGRLFTQKGNLLRHIKL,0.167
25,FICNVCGAWFTQKGNLLRHIKL,0.63

row,Sequence,log2 fold change of degron read counts
1,FACPICGHKFTQKGNLLRHIKL,-0.696
2,FHCPVCGAHFTQKGNLLRHIKL,0.424
3,FSCEQCGAWFTQKGNLLRHIKL,-1.04
4,LNCPICGFHCTQKGNLLRHIKL,0.691
5,FHCEVCGAAFTQKGNLLRHIKL,-1.72
6,FACSVCGHEFTQKGNLLRHIKL,-1.3
7,LTCNQCGFFCTQKGNLLRHIKL,1.3
8,FGCNQCGRIFTQKGNLLRHIKL,1.04
9,FWCDQCGAQFTQKGNLLRHIKL,-1.56
10,FQCDQCGAEFTQKGNLLRHIKL,-2.51
11,FECPICGHMFTQKGNLLRHIKL,-0.596
12,FHCNVCGADFTQKGNLLRHIKL,-1.46
13,FKCPQCGACFTQKGNLLRHIKL,-1.04
14,LNCEICGFECTQKGNLLRHIKL,-0.567
15,FQCNQCGHFFTQKGNLLRHIKL,-0.054
16,FSCEICGRRFTQKGNLLRHIKL,-0.891
17,FYCDICGAFFTQKGNLLRHIKL,-0.268
18,FRCPVCGANFTQKGNLLRHIKL,-0.199
19,FQCEICGHAFTQKGNLLRHIKL,-2.37
20,FTCEICGAAFTQKGNLLRHIKL,-1.61
21,FACNICGAIFTQKGNLLRHIKL,-0.158
22,FWCEQCGALFTQKGNLLRHIKL,0.432
23,FDCEQCGASFTQKGNLLRHIKL,-1.58
24,FGCNQCGHTFTQKGNLLRHIKL,-0.0759
25,FKCNVCGADFTQKGNLLRHIKL,-2.37
